Experimental data reported in the supplement of paper PMC3334620.
Whole data set: some 33,000 sequences, median “E-score (-0.5 to 0.5)” near -0.011, cut for the highest 2% near 0.28. The list shows a part of the results.

Each sequence was assayed against T1, Gcr1 (UniProt P07261) (assay: PBM E-score (8-mer binding enrichment) (E-score (-0.5 to 0.5)); higher = stronger / more preferred TF binding; most listed sequences are background and not binding sites). Details: protein concentration: 100 nM; construct: GST-full length.
T1 sequence: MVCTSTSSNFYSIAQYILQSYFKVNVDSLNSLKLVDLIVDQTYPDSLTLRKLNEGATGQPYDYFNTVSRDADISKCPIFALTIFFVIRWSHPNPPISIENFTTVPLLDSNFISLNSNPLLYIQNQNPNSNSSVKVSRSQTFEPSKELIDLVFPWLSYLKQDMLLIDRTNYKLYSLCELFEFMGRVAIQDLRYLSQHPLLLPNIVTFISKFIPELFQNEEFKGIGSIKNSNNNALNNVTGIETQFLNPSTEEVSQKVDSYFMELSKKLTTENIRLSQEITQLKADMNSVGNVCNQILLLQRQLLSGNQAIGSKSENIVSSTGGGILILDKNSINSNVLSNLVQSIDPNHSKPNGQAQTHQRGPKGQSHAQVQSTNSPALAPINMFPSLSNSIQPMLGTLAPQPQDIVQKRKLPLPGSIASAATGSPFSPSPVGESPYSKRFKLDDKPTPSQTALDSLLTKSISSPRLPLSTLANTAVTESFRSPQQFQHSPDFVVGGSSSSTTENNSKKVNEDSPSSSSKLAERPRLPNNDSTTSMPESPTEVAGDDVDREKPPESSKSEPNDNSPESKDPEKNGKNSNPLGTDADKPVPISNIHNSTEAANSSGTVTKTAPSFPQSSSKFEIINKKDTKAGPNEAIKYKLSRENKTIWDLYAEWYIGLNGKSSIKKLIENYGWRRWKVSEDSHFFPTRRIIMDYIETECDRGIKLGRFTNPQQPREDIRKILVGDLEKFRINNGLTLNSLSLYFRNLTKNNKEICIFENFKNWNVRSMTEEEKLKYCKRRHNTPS
Method in brief: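 Yeast transcription factors carrying a GST tag, as full-length proteins or DNA-binding domains, were produced by PURExpress in vitro transcription/translation. About 100-200 nM protein was applied to universal all-10-mer Agilent arrays, double-stranded by primer extension on fresh or once-stripped slides. Bound protein was detected with fluorescent anti-GST, and scans were normalised with masliner. The Universal PBM Analysis Suite gave each ungapped eight-base word, pooled with its reverse complement, an E-score, a modified Wilcoxon-Mann-Whitney statistic.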

Sequence | PBM E-score
GAAGGCGC | 0.16
ATAATTCA | 0.102
GAGCCTAA | -0.0571
AGCTATTA | -0.103
CCGTTCCA | -0.105
TCTGACAA | 0.00319
CGCAACTA | 0.258
TCGGTCAA | -0.214
CGTCGCTA | -0.109
CGCCTTGA | 0.0466
ATCGAGAT | -0.102
GCACTCCC | -0.0571
CCGACCTA | 0.0158
GAAACTGA | 0.0446
AAAGACCG | -0.0645
AAAGTTCT | -0.173
ACGGCGAT | -0.0312
CACTACAA | 0.0296
ACGCGACG | 0.111
AATTTAGC | -0.00571
CAAATCTG | 0.158
CTCCCCGA | -0.0766
AAACTTCA | 0.101
ACATAAGT | -0.0903

Sequence | PBM E-score
GATTAAGC | 0.0627
AATAGCGT | 0.101
GAATGACA | -0.145
TCCGAGAA | 0.112
CCATAAAC | -0.00406
GTAAGCGA | -0.159
CGAGCTCA | -0.0326
CAGGTAAG | 0.0277
AGGCGGTA | -0.111
CTGCAGGA | 0.205
CATACACG | 0.0935
AGGTCGAA | -0.109
CGACCCGA | -0.151
AAGAATGT | 0.0927
CCAGGCGG | 0.122
AGACGCGC | 0.289
GGTCCCAC | 0.11
GGGTGGCA | -0.112
CCCTTTCA | 0.0273
GTGGCCTA | -0.202
GGTTACGA | 0.045
ATGGGGTG | 0.0664
CAGCGAAA | 0.124
ATTAAGGC | -0.0607

Sequence | PBM E-score
CACTTTAC | 0.117
AGGACGCC | 0.453
CTAATCAA | 0.141
CGTCTAAC | 0.138
CCGTATCA | 0.0711
ATGAATCA | -0.165
GACAAGTC | -0.145
ATAACGGG | 0.0248
TTGATAAA | -0.0458
ATTACAAG | 0.142
CACGGGGA | -0.0961
CTCTTCCA | -0.0725
ACATTATA | 0.111
GCTAATAC | -0.0825
AGTACGGG | -0.0604
TAAGCTAA | -0.153
CTTTCGGC | -0.0722
CCTTCGTA | 0.00994
CACATCTG | -0.0906
AATCGCAA | 0.0343
CTGTTTAA | 0.219
ATACCGGC | 0.129
GAGAGGCA | 0.0587
AGGCACCG | 0.04

Sequence | PBM E-score
CCACACCA | -0.0013
CGTGGCAA | -0.0859
TCATTTAA | 0.0582
CGATAGTC | -0.179
AGAACTCT | -0.27
GTACCGAC | -0.168
TCTGGTAA | 0.246
ATGGATAC | 0.106
AAACAAAG | 0.0917
AAGTAAAC | -0.0274
GTCGCCAC | 0.189
CATATAGC | 0.132
GCGTAACC | -0.0742
ATGGTTAC | 0.0776
CGCCACCA | 0.00609
CAGAATCC | 0.161
CCGTTGAA | -0.173
ACGAGTGC | -0.138
ACTAAACC | -0.121
CCCACCTA | -0.0634
TATAACGA | -0.179
ATCGGCTA | 0.184
